# Experimental data from the supplement of paper PMC8728848.
# The other results are listed elsewhere or left out.
# B1: CLEC-1 (Homo sapiens), Q9NZH3 (protein)
# chain: MQAKYSSTRDMLDDDGDTTMSLHSQASATTRHPEPRRTEHRAPSSTWRPVALTLLTLCLVLLIGLAAWGLLFFQYYQLSNTGQDTISQMEERLGNTSQELQSLQVQNIKLAGSLQHVAEKLCRELYNKAGAHRCSPCTEQWKWHGDNCYQFYKDSKSWEDCKYFCLSENSTMLKINKQEDLEFAASQSYSEFFYSYWTGLLRPDSGKAWLWMDGTPFTSELFHIIIDVTSPRSRDCVAILNGMIFSKDCKELKRCVCERRAGMVKPESLHVPPETLGEGD
# How the values were obtained:
# Assay in all cases: glycan array binding signal (z-score within array); higher = stronger binding
# Details in all cases: glycan notation: IUPAC condensed, linker removed
# [1] = biological target: Neu5Ac(a2-6)Gal(b1-4)GlcNAc(b1-3)Gal(b1-4)GlcNAc(b1-3)Gal(b1-4)GlcNAc
# In short: (§1)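 Glycan array data came from 3228 arrays in the Consortium for Functional Glycomics database, and only arrays with an available protein sequence were kept. Glycan names were put into IUPAC-condensed notation, and columns mapping to the same glycan were averaged. The binding signal is a within-array Z-score, averaged across arrays of one protein sequence run at different concentrations or buffers and across linkers. A negative Z-score can be read as non-binding.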
# [2] = biological target: Neu5Ac(a2-6)Gal(b1-4)GlcNAc(b1-3)Gal(b1-4)[Fuc(a1-3)]GlcNAc(b1-3)Gal(b1-4)[Fuc(a1-3)]GlcNAc
# In short: as §1
# [3] = biological target: Neu5Ac(a2-6)Gal(b1-4)GlcNAc(b1-3)GalNAc
# In short: as §1
# [4] = biological target: Neu5Ac(a2-6)Gal(b1-4)GlcNAc6S
# In short: as §1
# Neu5Ac(a2-6)GalNAc = biological target: Neu5Ac(a2-6)GalNAc
# In short: as §1
# [5] = biological target: Neu5Ac(a2-6)GalNAc(b1-4)GlcNAc
# In short: as §1
# [6] = biological target: Neu5Ac(a2-6)GlcNAc(b1-4)GlcNAc
# In short: as §1
# [7] = biological target: Neu5Ac(a2-6)GlcNAc(b1-4)GlcNAc(b1-4)GlcNAc
# In short: as §1
# Neu5Ac(a2-8)Neu5Ac = biological target: Neu5Ac(a2-8)Neu5Ac
# In short: as §1
# [8] = biological target: Neu5Ac(a2-8)Neu5Ac(a2-3)Gal(b1-4)Glc
# In short: as §1
# [9] = biological target: Neu5Ac(a2-8)Neu5Ac(a2-3)[GalNAc(b1-4)]Gal(b1-4)Glc
# In short: as §1
# [10] = biological target: Neu5Ac(a2-8)Neu5Ac(a2-8)Neu5Ac
# In short: as §1
# [11] = biological target: Neu5Ac(a2-8)Neu5Ac(a2-8)Neu5Ac(a2-3)Gal(b1-4)Glc
# In short: as §1
# [12] = biological target: Neu5Ac(a2-8)Neu5Ac(a2-8)Neu5Ac(a2-3)[GalNAc(b1-4)]Gal(b1-4)Glc
# In short: as §1
# [13] = biological target: Neu5Ac(a2-8)Neu5Ac(a2-8)Neu5Ac(a2-8)Neu5Ac(a2-3)[GalNAc(b1-4)]Gal(b1-4)Glc
# In short: as §1
# Neu5Ac(b1-6)GalNAc = biological target: Neu5Ac(b1-6)GalNAc
# In short: as §1
# [14] = biological target: Neu5Ac(b2-6)Gal(b1-4)GlcNAc
# In short: as §1
# Neu5Ac(b2-6)GalNAc = biological target: Neu5Ac(b2-6)GalNAc
# In short: as §1
# [15] = biological target: Neu5Ac9Ac(a2-3)Gal(b1-3)GlcNAc
# In short: as §1
# [16] = biological target: Neu5Ac9Ac(a2-3)Gal(b1-4)GlcNAc
# In short: as §1
# [17] = biological target: Neu5Ac9Ac(a2-6)Gal(b1-4)GlcNAc
# In short: as §1
# [18] = biological target: Neu5Gc(a2-3)Gal(b1-3)GlcNAc
# In short: as §1
# [19] = biological target: Neu5Gc(a2-3)Gal(b1-3)[Fuc(a1-4)]GlcNAc
# In short: as §1
# Neu5Gc(a2-3)Gal(b1-4)Glc = biological target: Neu5Gc(a2-3)Gal(b1-4)Glc
# In short: as §1
# [20] = biological target: Neu5Gc(a2-3)Gal(b1-4)GlcNAc
# In short: as §1
# [21] = biological target: Neu5Gc(a2-3)Gal(b1-4)[Fuc(a1-3)]GlcNAc
# In short: as §1
# [22] = biological target: Neu5Gc(a2-6)Gal(b1-4)GlcNAc
# In short: as §1
# Neu5Gc(a2-6)GalNAc = biological target: Neu5Gc(a2-6)GalNAc
# In short: as §1
# [23] = biological target: Neu5Gc(b2-6)Gal(b1-4)GlcNAc
# In short: as §1
binder,measurement,setting,value
B1,glycan array binding signal (z-score),[1],-0.43
same,glycan array binding signal (z-score),[2],0.011
same,glycan array binding signal (z-score),[3],-0.394
same,glycan array binding signal (z-score),[4],-0.437
same,glycan array binding signal (z-score),Neu5Ac(a2-6)GalNAc,-0.471
same,glycan array binding signal (z-score),[5],-0.107
same,glycan array binding signal (z-score),[6],0.208
same,glycan array binding signal (z-score),[7],-0.341
same,glycan array binding signal (z-score),Neu5Ac(a2-8)Neu5Ac,-0.318
same,glycan array binding signal (z-score),[8],0.443
same,glycan array binding signal (z-score),[9],-0.106
same,glycan array binding signal (z-score),[10],-0.346
same,glycan array binding signal (z-score),[11],-0.156
same,glycan array binding signal (z-score),[12],-0.15
same,glycan array binding signal (z-score),[13],-0.231
same,glycan array binding signal (z-score),Neu5Ac(b1-6)GalNAc,-0.392
same,glycan array binding signal (z-score),[14],-0.294
same,glycan array binding signal (z-score),Neu5Ac(b2-6)GalNAc,-0.441
same,glycan array binding signal (z-score),[15],-0.305
same,glycan array binding signal (z-score),[16],-0.268
same,glycan array binding signal (z-score),[17],-0.205
same,glycan array binding signal (z-score),[18],-0.313
same,glycan array binding signal (z-score),[19],-0.318
same,glycan array binding signal (z-score),Neu5Gc(a2-3)Gal(b1-4)Glc,-0.362
same,glycan array binding signal (z-score),[20],-0.24
same,glycan array binding signal (z-score),[21],0.294
same,glycan array binding signal (z-score),[22],0.065
same,glycan array binding signal (z-score),Neu5Gc(a2-6)GalNAc,-0.297
same,glycan array binding signal (z-score),[23],0.058
